About 65 (0.1%) of roughly 45,000 compounds were called active. Calls come from the whole dose curve; as a rule, active = well fitted activation curve with a large enough effect; inconclusive = small, poorly fitted or top-dose-only effect; inactive = no such curve, though single readings can be large or run the other way. Some of the results follow.
Biological target: Galactocerebrosidase (Homo sapiens) (UniProt P54803)
Test: A Novel Cell-Based Assay to Identify Small Molecules for B -Galactocerebrosidase; note: 0% is about no effect; nearly all actives have a fitted effect of over 65% in size
Settings: 145M-Twi-hGALC-G270D cells (Twitcher mouse brain line with human GALC G270D), HMU-beta-Gal fluorescence, 48 h; series mostly up to 57.5 µM; activation: at the top concentration
Procedure, shortened: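 Brain-derived Twitcher mouse 145M-Twi cells stably expressing human GALC-G270D or wild-type GALC, treated live, then residual GALC activity read by fluorescence of HMU-b-Gal substrate (0.1 mM final) in citrate-phosphate buffer pH 5.2 with sodium taurocholate. Signal increase indicates enhancement.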

UniProt P54803, sequence (P54803 whole entry, looked up): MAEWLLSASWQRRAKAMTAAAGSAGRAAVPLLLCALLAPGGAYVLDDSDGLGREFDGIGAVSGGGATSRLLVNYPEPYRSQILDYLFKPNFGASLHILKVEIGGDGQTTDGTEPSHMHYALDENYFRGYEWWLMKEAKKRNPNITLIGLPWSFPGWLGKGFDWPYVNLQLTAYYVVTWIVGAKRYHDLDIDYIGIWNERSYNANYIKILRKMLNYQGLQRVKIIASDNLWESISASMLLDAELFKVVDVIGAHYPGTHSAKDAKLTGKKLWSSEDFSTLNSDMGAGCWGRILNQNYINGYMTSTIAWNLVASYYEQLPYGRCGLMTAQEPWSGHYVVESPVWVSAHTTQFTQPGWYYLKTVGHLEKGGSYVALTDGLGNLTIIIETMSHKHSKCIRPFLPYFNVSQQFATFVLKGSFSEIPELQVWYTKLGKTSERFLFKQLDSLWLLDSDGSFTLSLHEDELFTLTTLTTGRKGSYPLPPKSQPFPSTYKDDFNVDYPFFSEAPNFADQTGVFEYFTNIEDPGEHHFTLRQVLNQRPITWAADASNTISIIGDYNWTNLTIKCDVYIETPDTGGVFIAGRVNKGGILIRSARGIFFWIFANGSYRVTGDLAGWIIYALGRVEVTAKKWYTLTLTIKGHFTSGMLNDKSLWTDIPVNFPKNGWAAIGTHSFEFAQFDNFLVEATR

activation, inactive:
CCOc1cccc2sc(NC(=O)c3ccc(S(=O)(=O)N4CCc5ccccc54)cc3)nc12 2.56%
CCc1cccc(C)c1NC(=O)C(CC)Sc1nc2ccncc2[nH]1 (configuration not stated) -24.8%
Cc1cc(C)cc(NC(=O)N2CCN(C)c3ncccc32)c1 -11.7%
COc1cc(C2Nc3ccccc3-c3nnc(SCc4ccc(Cl)cc4)nc3O2)ccc1OCC(=O)O (configuration not stated) -10.9%
Cc1ccc2c(CC(=O)Nc3ccc(S(=O)(=O)Nc4nc(C)cc(C)n4)cc3)coc2c1 -16.4%
CCOC(=O)CSc1nc2cc3c(cc2c(=O)n1CCCCCC(=O)NCc1ccc2c(c1)OCO2)OCO3 24.3%
CCCCN(C)C(=O)c1ccc2c(c1)N(Cc1cccc(Cl)c1)C(=O)c1ccccc1S2=O (configuration not stated) -18.6%
CCC1=Nc2cc(C(=O)NCCCOC(C)C)ccc2Sc2ccc(C)cc21 -7.39%
O=C(NCc1ccc(Cl)cc1)C1(c2cccs2)CCOCC1 -4.58%
Cc1cc2oc(C(=O)N(Cc3ccc(N(C)C)cc3)CC3CCCO3)c(C)c2cc1C (configuration not stated) -10.8%
O=C(CCCCn1c(=O)c2ccccc2n(Cc2ccccc2F)c1=O)NCc1ccc2c(c1)OCO2 -26.7%
CCN1CCc2c(sc(NC(=O)CSc3ccccc3)c2-c2nc3ccccc3s2)C1 -17.5%
COC(=O)C1=C(C)NC(C)=C(C(=O)OCCCN2CCC(c3ccccc3)(c3ccccc3)CC2)C1c1cccc([N+](=O)[O-])c1 (configuration not stated) -13.3%
COc1ccc(-c2noc(-c3cc(C(C)C)[nH]n3)n2)cc1 -22.1%
CCOc1ccc(CNC(=O)CN2C(=O)CSc3ccc(S(=O)(=O)N4CCOCC4)cc32)cc1OC -5.96%
Cn1c(=O)cc(OCC(=O)N2CCN(c3ccccc3F)CC2)c2ccccc21 -3.72%
CN(C)CCOC(c1ccccc1)c1ccc(Br)cc1 (configuration not stated) -12.8%
Cc1ccc(OCCSc2nc3ccccc3n2CC(=O)N2CCCCC2)cc1C 3.65%
COC(=O)c1ccccc1NC(=O)CCn1nc(C)c2c(C)n(-c3ccccc3)nc2c1=O -14.2%
Cc1ccc(CNC(=O)C2CCCN(c3nc4c(C)cc(C)cc4s3)C2)cc1 (configuration not stated) -9.52%
CC(=O)c1cccc(Nc2cc(C)nc3nc(-c4ccccc4C)nn23)c1 -10.7%
COC(=O)c1ccccc1NC(=O)Cn1ncc2c(C)n(Cc3ccc(F)cc3)c(C)c2c1=O -9.3%
O=C(Nc1ccc(NC(=O)c2cccs2)cc1)c1ccc(Cl)cc1 1.42%
O=C(COc1ccccc1)NCCc1csc(-c2ccc(F)cc2)n1 -25.7%
CC1(c2ccccc2)OC(C(=O)O)=CC1=O (configuration not stated) -8.73%
Cc1ccccc1Cc1c(C)nc2c(-c3ccccc3)c(C)[nH]n2c1=O -6.35%
Cc1cccc(C)c1NC(=O)CN(CC(=O)O)CC(=O)O -12.2%
COc1ccc(CNC(=O)CCc2nc3cccnc3n2Cc2ccc(OC)cc2)cc1 -7.22%
O=C(Cn1cc(S(=O)(=O)Cc2cccc(Cl)c2)c2ccccc21)Nc1ccc(F)c(Cl)c1 -5.07%
CCCCOc1ccc(Cn2c(=O)oc3ccccc32)cc1 -17%
O=C(NCc1cccc(Cl)c1)c1oc(=O)c2ccccc2c1-c1ccccc1 -3.19%
Cc1nn(CCCC(=O)NCCc2ccc(Cl)cc2)c(=O)c2nn(-c3ccccc3)c(C)c12 -10.7%
COc1ccccc1CNS(=O)(=O)c1cc(-c2cc(C)no2)ccc1C -11%
CCOc1ccc(OCC(=O)NCCS(=O)(=O)N2CCN(c3ccc(OC)cc3)CC2)cc1 -19.8%
COC(=O)c1ccc(NC(=O)c2nn(C)c3c2COc2ccccc2-3)cc1 2.64%
Cc1ccc(NC(=O)Cn2c(=O)n(CCc3ccccc3)c(=O)c3sc4ccccc4c32)cc1C 16.7%
CCN(CC)CCOC(=O)c1ccc(N)cc1 -5.2%
COc1ccc(C2CC(=O)c3cc(-c4nc(-c5cccc([N+](=O)[O-])c5)cs4)c(=O)n(-c4ccccc4C)c3C2)cc1 (configuration not stated) 1.09%
CCn1c(=O)c(C(=O)Nc2cc(OC)c(OC)c(OC)c2)nc2ccccc21 -6.64%
O=C(NCc1ccccc1F)c1cccc(NC(=O)N2CCSc3ncccc32)c1 -15.4%
Cc1ccc(-c2cc(NC(=O)COc3c(C)cc(C)cc3C)on2)cc1 -12%
COc1ccc(Cl)cc1NC(=O)c1c(NCc2cccs2)sc2c1CCC(C)C2 (configuration not stated) -9.84%
CCOc1ccccc1NC(=O)CSc1nc(-c2cccs2)cc(C(F)(F)F)n1 -7.73%
Cc1[nH]c2ccccc2c1SCCNC(=O)c1ccc(F)cc1 -9.82%
CC(C)c1ccc(NC(=O)CSC2=Nc3ccccc3C3=NC(CC(=O)NCCc4ccccc4)C(=O)N23)cc1 (configuration not stated) -10.5%
COc1cccc(CNC(=O)C2CCN(c3ncnc4c3nc3n4CCCCC3)CC2)c1 -0.124%
O=C(Nc1cc(-c2nc3ccccc3o2)ccc1Cl)c1cc([N+](=O)[O-])ccc1N1CCOCC1 2.99%
Cc1cc(-c2ccc(C)c(S(=O)(=O)NCCc3ccccc3)c2)on1 -12.1%
Cc1ccc(NC(=O)CSc2nc(=O)n(CCN3CCOCC3)c3c2CCC3)cc1Cl -26.8%
CCC(=O)N1c2ccccc2CC1C(=O)NCCN1CCN(c2ccccc2F)CC1 (configuration not stated) -11.2%
Cc1ccc(Nc2c(-c3cccc(Cl)c3)nc3cccc(C)n23)cc1 -22.1%
CCCc1noc(-c2ccc(NCc3ccccc3OC)c([N+](=O)[O-])c2)n1 -15.8%
CC(C)(C)OC(=O)N1CCC(c2c(C(=O)NCc3ccccn3)cnn2-c2ccccc2Cl)CC1 0.0237%
Cc1ccc(C)c(N2CCN(S(=O)(=O)c3ccc(C4CCCCC4)cc3)CC2)c1 -12.7%
Cn1c(=O)nc2n(-c3ccc(Br)cc3)c3cccc(Cl)c3cc-2c1=O -10.7%
Cc1cccc(Cn2c(SCc3ccc(C(=O)NCc4cccs4)cc3)nc3ccncc32)c1 -6.53%
CN(C)C1(CNC(=O)COc2cccc(Cl)c2)CCCCC1 -4.23%
Cc1ccccc1C(=O)Nc1ccc2nc(SCC(=O)N(C)c3ccccc3)sc2c1 -10.2%
COc1ccc(N(C(=O)c2cc(OC)c(OC)c(OC)c2)S(=O)(=O)c2ccc(C)cc2)cc1 -16.3%
Cn1cc(-c2cc3n(n2)CCC(=O)N3CC(=O)NCc2ccccc2)c2ccccc21 -17.4%
O=c1cc(N2CCN(c3ccc(F)cc3)CC2)[nH]c(=O)n1-c1cccc(Br)c1 -4.41%
Cc1cccc(C(=O)NCc2cn3cccc(C)c3n2)c1 -10.3%
CC(C)c1ccc(Cc2cnc(NC(=O)c3ccc4c(c3)CC(c3ccccc3)OC4=O)s2)cc1 (configuration not stated) -8.11%
CCOC(=O)C1CCCN(C(=O)Cn2nc(C)n3c(cc4c(OC)cccc43)c2=O)C1 (configuration not stated) -14.5%
COc1cccc(CNC(=O)C2CCCN(S(=O)(=O)c3cn(C)cn3)C2)c1 (configuration not stated) -6.47%
Cc1ccc(-n2c(=O)c3cccnc3n2CC(=O)Nc2ccccc2C(F)(F)F)cc1C -20.3%
Cc1ccc(CNC(=O)C2CCN(S(=O)(=O)c3c(C)noc3/C=C/c3ccccc3F)CC2)o1 -12%
COc1ccc(S(=O)(=O)N(C(=O)c2ccncc2)c2ccc3oc(C)c(C(C)=O)c3c2)cc1 -23.5%
COc1ccc(-c2cn3c(n2)sc2cc(C(=O)NC4CCCCC4)ccc23)cc1 -17.2%
Cc1ccnc(NC(c2cc(C)ccc2O)c2ccc3cccnc3c2O)c1 (configuration not stated) -5.19%
COc1ccccc1OC(C)C(=O)N1CCN(CCc2ccccn2)CC1 (configuration not stated) -11.6%
CC[C@H](C)NC(=O)CCCc1nnc2n(CCC(C)C)c(=O)c3sccc3n12 -2.3%
Cc1ccc(C)c(NC(=O)C(NS(=O)(=O)c2ccc3c(c2)CCC(=O)N3)c2ccccc2)c1 (configuration not stated) -18%
COC(=O)c1cc(Cl)ccc1NS(=O)(=O)C(F)(F)F -10.5%
CCN(CC)c1ccc(C2C(C(N)=O)=C(C)Nc3nc(SCc4ccccc4)nn32)cc1 (configuration not stated) -1.68%
O=c1c2ccccc2nc2sc(Nc3cccc(C(F)(F)F)c3)nn12 -13.9%
Cc1ccc(N2CC(NC(=O)Cc3ccc(F)cc3)CC2=O)cc1C (configuration not stated) -16.8%
COc1ccccc1CNC(=O)c1cnn(-c2ccc(F)cc2F)c1C1CCN(C(=O)OC(C)(C)C)CC1 1.52%
COc1ccc(-c2noc(CCC(=O)Nc3ccccc3Cl)n2)cc1OC -5.87%
COCCN1CN=C(NS(=O)(=O)c2ccc(C)cc2)NC1 -15.2%
Cc1cccc(Cc2c(C)nc3nc(SCC(=O)NC4CCCCC4)nn3c2C)c1 -5.24%
Fc1ccc(-c2noc3ncnc(NCc4cccc(Cl)c4)c23)cc1 -7.61%
CSc1cccc(NS(=O)(=O)c2ccc3[nH]cc(C(=O)N4CCCCCC4)c(=O)c3c2)c1 -11.1%
CCOC(=O)c1nnc2c(-c3ccc(F)cc3)c(C)nn2c1N -14.8%
COc1ccc(/C=C\c2onc(C)c2S(=O)(=O)N2CCC(C(=O)Nc3ccc(C)c(F)c3)CC2)cc1 -9.38%
COc1ccc(/C=C(\C#N)c2nc(-c3cc4ccccc4oc3=O)cs2)cc1OC 11%
CC1CCN(S(=O)(=O)c2ccc3nc(N4CCN(c5ccccc5F)CC4)ccc3c2)CC1 -18.2%
COC(=O)c1cccnc1-n1c(=O)c2cccnc2n(CC(=O)Nc2cccc(C(F)(F)F)c2)c1=O -22.9%
CCOc1cc(C2CC(=O)Nc3c2c(C)nn3-c2nc(C)cc(C)n2)ccc1O (configuration not stated) -9.57%
Cc1ccc(-c2onc(C)c2C)cc1S(=O)(=O)NC1CCC(C)CC1 (configuration not stated) -3.57%
COc1ccc2c(c1)Cc1sc(NC(=O)c3cccc(Cl)c3)nc1-2 -7.02%
CC(C)c1ccc(-c2noc(SCC(=O)N3CCCCC3)n2)cc1 -7.86%
CCOc1ccccc1CNC(=O)c1ccc(Cn2c(=O)c3cccn3c3cccnc32)cc1 -2.59%
CCCN(CCC)CCCNC(=O)c1nn(C)c2c1CS(=O)(=O)c1ccccc1-2 -10.8%
CC(=O)Nc1nonc1-c1nnc(SCc2cccc(Br)c2)n1C -21.5%
COc1cc(C)ccc1OCCSc1nnc(-c2cccs2)o1 -4.5%
O=C(/C=C/c1ccccc1)Nc1cc(-c2nc3ccccc3o2)ccc1Cl -0.398%
